# Results reported in publication PMC4336329 (PLoS ONE, 2015).
# The whole screen tested about 310,000 compounds, of which about 2,200 (0.71%) showed an effect of 50% or more. Effects have a minus sign here. This is one part of the list.
# Biological target: human ether-à-go-go-related gene (hERG) potassium channel (human, UniProt Q12809)
# Experiment: primary screen, population patch clamp on CHO cells stably expressing hERG
# Chain of human ether-à-go-go-related gene (hERG) potassium channel (Q12809 whole entry, looked up): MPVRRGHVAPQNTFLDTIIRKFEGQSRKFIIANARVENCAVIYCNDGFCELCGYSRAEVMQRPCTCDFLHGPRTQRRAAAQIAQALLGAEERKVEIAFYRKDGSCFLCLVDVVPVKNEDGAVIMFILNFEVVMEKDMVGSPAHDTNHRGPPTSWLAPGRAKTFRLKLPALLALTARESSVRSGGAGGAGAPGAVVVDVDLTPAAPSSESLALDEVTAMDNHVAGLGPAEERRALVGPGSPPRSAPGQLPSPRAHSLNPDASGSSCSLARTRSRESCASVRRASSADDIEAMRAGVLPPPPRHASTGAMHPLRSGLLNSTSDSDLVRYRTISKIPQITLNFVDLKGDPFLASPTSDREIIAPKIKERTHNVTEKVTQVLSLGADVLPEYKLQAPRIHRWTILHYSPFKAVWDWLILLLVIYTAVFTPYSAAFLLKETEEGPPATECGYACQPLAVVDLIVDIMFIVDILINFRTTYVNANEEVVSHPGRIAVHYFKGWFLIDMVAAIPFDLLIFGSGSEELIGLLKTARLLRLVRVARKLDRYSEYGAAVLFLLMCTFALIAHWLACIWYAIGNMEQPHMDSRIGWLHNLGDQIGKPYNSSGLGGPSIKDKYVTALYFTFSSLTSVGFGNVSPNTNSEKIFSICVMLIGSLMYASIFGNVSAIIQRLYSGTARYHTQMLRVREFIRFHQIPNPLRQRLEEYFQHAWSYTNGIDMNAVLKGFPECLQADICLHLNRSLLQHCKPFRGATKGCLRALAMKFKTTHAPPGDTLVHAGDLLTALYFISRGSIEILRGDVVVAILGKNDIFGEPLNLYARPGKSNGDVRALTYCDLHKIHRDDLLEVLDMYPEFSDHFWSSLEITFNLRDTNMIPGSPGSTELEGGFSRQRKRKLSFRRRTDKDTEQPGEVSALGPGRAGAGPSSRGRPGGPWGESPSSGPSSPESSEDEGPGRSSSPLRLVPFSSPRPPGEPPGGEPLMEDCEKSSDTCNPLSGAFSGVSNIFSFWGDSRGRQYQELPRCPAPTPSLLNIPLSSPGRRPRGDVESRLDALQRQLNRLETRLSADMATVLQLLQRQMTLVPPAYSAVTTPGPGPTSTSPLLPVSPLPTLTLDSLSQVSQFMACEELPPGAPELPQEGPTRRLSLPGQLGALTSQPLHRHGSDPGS
row,Compound,"hERG current change (%, negative = inhibition) at 1uM"
1,Cc1ccc(S(=O)(=O)NNC(=O)C2CCN(Cc3ccccc3)CC2)cc1,-6.3%
2,O=C(NCCN1CCOCC1)C(=O)NCc1ccco1,14.6%
3,CSc1ccccc1C(=O)Nc1ccccc1C,13%
4,Cc1nnsc1C(=O)NC1CCCc2c1cnn2-c1cc(F)cc(F)c1 (stereo not shown),1.22%
5,CCCc1cc(-c2n[nH]c(=S)n2-c2cccc(C)c2)cs1,12.3%
6,COc1ccc2nc(/C=N/NC(=O)[C@H](CCSC)NC(=O)OC(C)(C)C)ccc2c1,0.0002%
7,O=C(CSc1nc2sc3c(c2c(=O)n1-c1ccccc1)CCCC3)N/N=C/c1ccccc1C(=O)O,13.6%
8,Nc1ccccc1SCC(=O)Nc1cccc2ccccc12,13.9%
9,C=CCSC1=C(C#N)C(c2ccccc2Cl)CC(=O)N1 (stereo not shown),2.54%
10,CCN(CC)c1cnn(C/C(=N\OC)c2ccc(Cl)cc2)c(=O)c1Br,3.27%
11,CCOC(=O)Cn1c(=O)oc2cc(S(=O)(=O)Nc3cc(Cl)ccc3OC)ccc21,6.88%
12,COc1ccc2cc(-c3ccccc3)c(=O)oc2c1,18.5%
13,O=C(O)c1nc2nc(Cl)c(Cl)nc2[nH]1,17.1%
14,COC1=CC(=O)C(O)=C(CCCCCCC/C=C/CCCCCCCC2=C(O)C(=O)C=C(OC)C2=O)C1=O,16.2%
15,O=C(O)c1ccccc1/C=N/NC(=S)NC1CCCCC1,6.63%
16,COc1cc(Cl)c(C)cc1NC(=O)CCNC(=O)c1ccco1,15%
17,COc1ccccc1CNC(=O)c1oc2ccccc2c1C,2.48%
18,O=C(/C=C/c1ccc(F)cc1)NCCCN1CCN(CCCNC(=O)/C=C/c2ccc(F)cc2)CC1,-72.5%
19,O=C(Nc1ccccc1NC(=O)C1CCCO1)c1ccco1 (stereo not shown),10.2%
20,C=CCn1ccc2c([N+](=O)[O-])cccc2c1=O,8.46%
21,COc1ccc(C2(C#N)CCN(C)CC2)cc1.Cl,-0.0475%
22,Nc1cccn2c(-c3ccc(Cl)c(Cl)c3)cnc12,15.3%
23,COc1ccc(-c2cc(C(F)F)n3ncc(C(=O)N4CCc5ccccc54)c3n2)cc1,4.85%
24,Cc1cc(C)cc(-n2ncc3c2CCCC3NC(=O)CCN2Cc3ccccc3C2=O)c1 (stereo not shown),-10.7%
25,COC(=O)CC1=C(C(=O)OC)C(c2cccc(OCC(N)=O)c2)C(C#N)=C(N)O1 (stereo not shown),9.72%
